# “And” between values parts separate entries of the source, which are not always exact repeats. Identical values can stand only once. Counter-ions that a name gives are not always drawn. Hit rate of the full screen: of about 5,800 compounds, about 620 (11%) showed activity.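 How the source made its calls: active = score above a cut-off or among the top three wells of a plate; in these data no inactive exceeds 0.85.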 This is a selection; strong and weak results do not stand in their true shares.
# System: primary human hepatic stellate cells (donor 1)
# Test: scaled lipid accumulation score (0 = DMSO-like, 1 = nortriptyline-like); higher = stronger HSC inactivation (lipid re-accumulation), active = hit call of the paper
# Conditions: 48 h
# Experimental: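 Primary lipid accumulation screen in primary human hepatic stellate cell myofibroblasts (donor 1, passage 8) in 384-well plates. 100 nL of library compound was pin-transferred into 30 µL medium in duplicate, and cells were treated for 48 h. The 'Scaled' score combines distance from plate baseline, toxicity and reproducibility penalties, and is normalised to nortriptyline (positive) and DMSO (negative) controls on each plate. A hit is defined as scaled >0.85 or among the top 3 wells per plate.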
# [1] = library stock concentration: 10 mM
# [2] = library stock concentration: 1 mM
# [3] = library stock concentration: 2 mM
# [4] = library stock concentration: 3.33 mM
# [5] = library stock concentration: 400 uM
# [6] = library stock concentration: 80 uM
smiles,measurement,setting,value
CCCCCCCCCCCCCCCC(=O)NCCO,scaled lipid accumulation score,[1],inactive: ≤ 0
CCCCCCCCCCCCCCCC(=O)NCCO [Palmitoylethanolamide],scaled lipid accumulation score,[1],inactive: 0.03
CCCCCCCCCCCCCCCC(=O)NCCO [Palmitoyl Ethanolamide],scaled lipid accumulation score,[2],inactive: ≤ 0
CCCCCCCCCCCCCCCC(=O)NCCO [Palmitylethanolamide],scaled lipid accumulation score,[2],inactive: ≤ -0.021
C[C@@H](Oc1cc(-n2cnc3ccc(CN4CCN(C)CC4)cc32)sc1C(N)=O)c1ccccc1C(F)(F)F,scaled lipid accumulation score,[3],active: 0.915
same,scaled lipid accumulation score,[1],active: 1.2
CN1CCN(C2=Nc3cc(Cl)ccc3Nc3ccccc32)CC1 [Clozapine],scaled lipid accumulation score,[4],inactive: 0.105
same,scaled lipid accumulation score,library stock concentration: 6.1 mM,inactive: 0.429 and inactive: 0.648
same,scaled lipid accumulation score,[1],inactive: 0.755 and inactive: 0.578
same,scaled lipid accumulation score,library stock concentration: 15.3 mM,inactive: 0.769
CO[C@@H](C(=O)N1Cc2[nH]nc(NC(=O)c3ccc(N4CCN(C)CC4)cc3)c2C1)c1ccccc1,scaled lipid accumulation score,[5],inactive: ≤ -0.005
same,scaled lipid accumulation score,[3],inactive: ≤ -0.005
same,scaled lipid accumulation score,[4],inactive: 0.533
same,scaled lipid accumulation score,[1],inactive: 0.779
Cc1c(Cc2ccc3ccccc3n2)c2cc(F)ccc2n1CC(=O)O,scaled lipid accumulation score,[4],inactive: ≤ 0
same,scaled lipid accumulation score,[1],inactive: ≤ 0
C=CC(=O)N1CCC(Oc2cc3c(Nc4ccc(Cl)c(Cl)c4F)ncnc3cc2OC)CC1 [Poziotinib],scaled lipid accumulation score,[6],inactive: 0.111
same,scaled lipid accumulation score,[5],inactive: 0.281
same,scaled lipid accumulation score,[3],inactive: 0.059
same,scaled lipid accumulation score,[1],inactive: 0.72
CCN(CCO)CCCOc1ccc2c(Nc3cc(CC(=O)Nc4cccc(F)c4)[nH]n3)ncnc2c1 [Barasertib (AZD1152-HQPA)],scaled lipid accumulation score,[4],inactive: ≤ 0
same,scaled lipid accumulation score,[1],inactive: ≤ 0
O=C(CCC/C=C\C[C@@H]1C(/C=C/[C@@H](O)COc2cccc(C(F)(F)F)c2)[C@H](O)C[C@@H]1O)NC(CO)CO (stereo partly drawn) [Fluprostenol serinol amide],scaled lipid accumulation score,[2],inactive: ≤ 0
NC(=O)CCCSc1nc(N)nc(-c2c(Cl)cc3c4c(cccc24)COC3)n1,scaled lipid accumulation score,[4],active: 0.86
same,scaled lipid accumulation score,[1],active: 0.886
Brc1ccc([C@H]2CN3CCSC3=N2)cc1 [S(-)-p-Bromotetramisole oxalate],scaled lipid accumulation score,[1],inactive: 0.32
C=CC[C@H](N)C(=O)O [L-allylglycine],scaled lipid accumulation score,[1],inactive: 0.041
C[C@@H]1NC(=O)NC1=O [Methylhydantoin-5-(L)],scaled lipid accumulation score,,inactive: ≤ 0
O=C(O)c1ccccc1Nc1ccccc1 [N-Phenylanthranilic acid],scaled lipid accumulation score,[1],inactive: 0.204
same,scaled lipid accumulation score,library stock concentration: 23.5 mM,inactive: 0.084
CN1CCCC(n2nc(Cc3ccc(Cl)cc3)c3ccccc3c2=O)CC1.Cl (stereo not drawn) [Azelastine hydrochloride],scaled lipid accumulation score,library stock concentration: 4.8 mM,active: 0.978
same,scaled lipid accumulation score,[1],active: 0.992
Cc1cc(C(=O)Nc2cc(Nc3ccc4c(/C=C/c5ccccn5)n[nH]c4c3)ccc2F)n(C)n1,scaled lipid accumulation score,[5],inactive: 0.035
same,scaled lipid accumulation score,[3],inactive: 0.724
COc1ccccc1N1CCN(CCCCNC(=O)c2ccc3ccccc3c2)CC1,scaled lipid accumulation score,[1],active: 1.01
CCCCCCCCCCC1=C(C)C(=O)C(OC)=C(OC)C1=O [Decylubiquinone],scaled lipid accumulation score,library stock concentration: 15.5 mM,inactive: ≤ -0.021
c1ccc(-c2cnc(Nc3ccc(OCCN4CCCC4)cc3)s2)cc1 [Flt-3 Inhibitor III],scaled lipid accumulation score,[4],active: 1.17
O=C(O)c1cc(=O)c2ccccc2o1 [Chromocarb],scaled lipid accumulation score,[4],inactive: ≤ 0
same,scaled lipid accumulation score,[1],inactive: ≤ -0.001 and inactive: 0.052
NC(=S)c1ccc[n+]([C@@H]2O[C@@H](COP(=O)([O-])OP(=O)(O)OC[C@H]3O[C@@H](n4cnc5c(N)ncnc54)C(OP(=O)(O)O)[C@H]3O)C(O)C2O)c1 (stereo partly drawn) [Thio-NADP sodium],scaled lipid accumulation score,[1],inactive: ≤ 0
CCOc1cc([C@@H](CS(C)(=O)=O)N2C(=O)c3cccc(NC(C)=O)c3C2=O)ccc1OC,scaled lipid accumulation score,[4],inactive: ≤ -0.009
same,scaled lipid accumulation score,[1],inactive: ≤ 0
CCCCCCCCCCCCC/C=C/[C@@H](O)[C@H](CO)NC(C)=O [C2 Ceramide],scaled lipid accumulation score,[2],inactive: ≤ -0.021
CCCCCCCCCCCCC/C=C/[C@@H](O)[C@H](CO)NC(C)=O [C-2 Ceramide],scaled lipid accumulation score,[2],inactive: ≤ 0
CC1=C(C(=O)OC(C)C)C(c2cccc([N+](=O)[O-])c2)C(C(=O)OC2CN(C(c3ccccc3)c3ccccc3)C2)=C(N)N1 (stereo not drawn) [Azelnidipine],scaled lipid accumulation score,[4],inactive: 0.061
same,scaled lipid accumulation score,[1],inactive: 0.189
Cc1cc(C2CCCCC2)n(O)c(=O)c1 [Ciclopirox olamine],scaled lipid accumulation score,library stock concentration: 7.5 mM,inactive: 0.096
same,scaled lipid accumulation score,[1],inactive: 0.082
Cc1cc(C2CCCCC2)n(O)c(=O)c1 [Ciclopirox ethanolamine],scaled lipid accumulation score,,inactive: 0.37
same,scaled lipid accumulation score,[4],inactive: 0.244
same,scaled lipid accumulation score,[1],inactive: 0.269
Cc1cc(C2CCCCC2)n(O)c(=O)c1 [Ciclopirox],scaled lipid accumulation score,[4],inactive: 0.015
same,scaled lipid accumulation score,[1],inactive: 0.096
"CCS(=O)(=O)N(C)[C@H]1c2cc(C#N)ccc2OC(C)(C)[C@@H]1O [(-)-[3R,4S]-Chromanol 293B]",scaled lipid accumulation score,[1],inactive: 0.037
COc1cc(C(=O)NS(=O)(=O)c2ccccc2C)ccc1Cc1cn(C)c2ccc(NC(=O)OC3CCCC3)cc12,scaled lipid accumulation score,[1],inactive: ≤ 0
COc1cc(C(=O)NS(=O)(=O)c2ccccc2C)ccc1Cc1cn(C)c2ccc(NC(=O)OC3CCCC3)cc12 [Zafirlukast],scaled lipid accumulation score,[2],inactive: ≤ 0
same,scaled lipid accumulation score,[4],inactive: ≤ 0
same,scaled lipid accumulation score,library stock concentration: 3.5 mM,inactive: ≤ -0.006
same,scaled lipid accumulation score,[1],inactive: ≤ 0
CN[C@H]1CN(c2ccc3c(=O)c(C(=O)O)cn(-c4nccs4)c3n2)C[C@@H]1OC [Voreloxin (SNS-595)],scaled lipid accumulation score,[4],inactive: ≤ -0.009
same,scaled lipid accumulation score,[1],inactive: 0.037
CC(C)OC(=O)CCC/C=C\C[C@@H]1[C@@H](/C=C/[C@H](O)C2Cc3ccccc3C2)[C@@H](F)C[C@@H]1O [AL 8810 isopropyl ester],scaled lipid accumulation score,[2],inactive: ≤ 0
CN1CCC[C@@H]1CCO[C@](C)(c1ccccc1)c1ccc(Cl)cc1.O=C(O)/C=C/C(=O)O [Clemastine fumarate],scaled lipid accumulation score,[1],active: 0.861
CCc1cncnc1N1CCN(Cc2nc3ccc(C(F)(F)F)cc3[nH]2)CC1,scaled lipid accumulation score,[6],inactive: ≤ 0
same,scaled lipid accumulation score,[5],inactive: ≤ 0
same,scaled lipid accumulation score,[3],inactive: ≤ 0
same,scaled lipid accumulation score,[4],inactive: ≤ 0
same,scaled lipid accumulation score,[1],inactive: 0.077 and inactive: 0.419 and inactive: ≤ 0
